Results from publication PMC4336329 (PLoS ONE, 2015).
Out of some 310,000 compounds screened, about 14,000 (4.5%) showed an effect of 50% or more. The effect is printed as a negative number. The list shows a part of the results.

target: human ether-à-go-go-related gene (hERG) potassium channel (human, UniProt Q12809); test: primary screen, population patch clamp on CHO cells stably expressing hERG
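Note: peak tail current of the secondary pulse compared with the same well before compound.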

Chain of human ether-à-go-go-related gene (hERG) potassium channel (Q12809 whole entry, looked up): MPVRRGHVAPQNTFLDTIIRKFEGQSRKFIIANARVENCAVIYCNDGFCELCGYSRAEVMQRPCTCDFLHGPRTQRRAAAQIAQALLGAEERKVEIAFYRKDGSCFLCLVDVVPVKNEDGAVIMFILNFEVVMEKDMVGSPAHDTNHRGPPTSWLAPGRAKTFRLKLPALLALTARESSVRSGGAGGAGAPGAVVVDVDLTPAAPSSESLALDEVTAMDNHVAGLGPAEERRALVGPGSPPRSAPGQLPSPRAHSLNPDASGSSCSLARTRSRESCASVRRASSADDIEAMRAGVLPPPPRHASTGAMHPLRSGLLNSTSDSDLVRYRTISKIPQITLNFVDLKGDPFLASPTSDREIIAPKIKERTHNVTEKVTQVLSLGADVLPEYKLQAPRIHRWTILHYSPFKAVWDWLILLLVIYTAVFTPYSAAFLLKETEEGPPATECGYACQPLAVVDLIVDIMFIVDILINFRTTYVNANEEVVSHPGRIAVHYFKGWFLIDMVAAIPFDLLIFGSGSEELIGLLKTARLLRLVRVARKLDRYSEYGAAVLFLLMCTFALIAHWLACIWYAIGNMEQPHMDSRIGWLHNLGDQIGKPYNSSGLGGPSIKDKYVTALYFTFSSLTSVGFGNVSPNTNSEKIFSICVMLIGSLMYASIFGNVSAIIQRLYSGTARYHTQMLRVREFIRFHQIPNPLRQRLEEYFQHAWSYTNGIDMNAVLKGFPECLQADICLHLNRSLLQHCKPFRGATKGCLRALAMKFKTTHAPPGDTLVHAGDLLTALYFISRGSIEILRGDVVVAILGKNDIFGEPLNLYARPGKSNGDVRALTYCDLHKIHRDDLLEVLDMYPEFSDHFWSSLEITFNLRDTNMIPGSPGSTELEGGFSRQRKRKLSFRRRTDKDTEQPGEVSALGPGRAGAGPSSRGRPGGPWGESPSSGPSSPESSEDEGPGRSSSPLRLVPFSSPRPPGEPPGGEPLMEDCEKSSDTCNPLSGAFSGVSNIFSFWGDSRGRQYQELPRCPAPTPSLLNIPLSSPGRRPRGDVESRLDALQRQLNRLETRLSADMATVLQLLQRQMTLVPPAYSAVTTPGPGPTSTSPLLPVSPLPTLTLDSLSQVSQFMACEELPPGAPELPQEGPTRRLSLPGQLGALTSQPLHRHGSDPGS

Point of comparison: COC(=O)C1=C(C)NC(=S)N(C(C)=O)C1c1ccccc1 (stereo not drawn), “hERG current change (%, negative = inhibition) at 10uM” value -8.87%. Against it:
- O=C(O)CC(CCc1ccccc1)OC1OC(CO)C(O)C(O)C1O (stereo not drawn) — higher, 14.4%
- N#Cc1ccc(NC(=O)COC(=O)CSc2nnc(-c3ccc(Cl)cc3)o2)cc1 — higher, -3.87%
- CS(=O)(=O)N1CCc2cc(-c3csc(NC(=O)C(c4ccccc4)c4ccccc4)n3)ccc21 — higher, 9.14%
- Clc1ccc(-c2cc(C3CCNCC3)[nH]n2)cc1 — higher, -3.21%
- COCCNC(=O)COc1ccc(Oc2ccccc2)cc1 — higher, 4.33%
- CC1CCCC(NC(=O)CCCn2c(=S)[nH]c3ccccc3c2=O)C1C (stereo not drawn) — higher, 4.09%
- O=C(CNCCC1=CCCCC1)Nc1ccccc1N1CCCCC1.O=C(O)C(=O)O — higher, 7.28%
- Clc1ccc(OCc2nc(-c3ccncc3)no2)c(Br)c1 — lower, -20.1%
- CCOC(=O)CCn1c2nc(C)cc(C)c2c(=O)n1-c1ccccc1 — higher, -6.66%
- CC1CCN(C(=O)c2[nH]cnc2C(=O)NCc2ccc(CNC(=O)OC(C)(C)C)cc2)CC1 — higher, -2.55%
- N#Cc1sc2nc(-c3cccs3)cc(-c3ccc(F)cc3)c2c1N — higher, 14.1%
- CN(C)c1ccc(-c2sc(Nc3ccccc3)n[n+]2-c2ccc(F)cc2)cc1.[Cl-] — lower, -73.1%
- O=C(NC(=S)NCC1CCCO1)c1cccs1 (stereo not drawn) — higher, 13.7%
- NC(=O)Cn1c(O)c(N=NC(=O)CNC(=O)/C=C/c2ccccc2)c2ccccc21 — higher, 13.3%
- COc1cc(OC)cc(C(=O)NCC2CCCO2)c1 (stereo not drawn) — higher, 7.37%
- Cc1ccc(C)c(NC(=O)CN(C)S(=O)(=O)c2ccc(F)cc2)c1 — higher, 3.47%
- Cn1cnnc1SCCNS(=O)(=O)c1ccccc1 — higher, 10.8%
- Nc1ccc(C(=O)N(CCO)CCO)cc1 — higher, 18%
- Cc1cc(NC(=O)CN2C(=O)NC3(CCCCC3C)C2=O)no1 (stereo not drawn) — higher, -4.25%
- COC(=O)c1cc(OC)c(OC)cc1NC(=O)Cc1cccs1 — higher, 0.709%
- Cc1ccc(C)c(Cn2nnc3c(=O)[nH]c(C4CCN(C(=O)c5cccs5)CC4)nc32)c1 — lower, -66.5%
- COc1ccc(N)c2c1C(=O)c1ccccc1C2=O — lower, -10.4%
- CC(=O)c1cccc(NC(=O)c2ccc(OCc3c(C)noc3C)cc2)c1 — higher, 19.2%
- CCOc1ccc(N2CC(C(=O)Nc3nnc(SCCOC)s3)CC2=O)cc1 (stereo not drawn) — lower, -37.4%
- CC(C)(C)NC(=O)NC(=O)CN1CCN(S(=O)(=O)c2ccccc2)CC1 — higher, 7.92%
- COc1ccc(Br)c(OC)c1C(=O)NC(=O)Nc1nc(C)cc(C)n1 — higher, -5.8%
- Cc1cccc(NC(=O)c2ccc3ccccc3n2)c1C — higher, 16.3%
- CNS(=O)(=O)c1ccc(Cl)nc1 — higher, 4.79%
- O=C(Nc1ccc(OC(F)(F)F)cc1)C1CCCN(S(=O)(=O)c2cccnc2)C1 (stereo not drawn) — lower, -38%
- CC(C)c1cccc(C(C)C)c1OC(=O)[C@H]1OC(c2ccc(Br)cc2)=C[C@@H]1c1ccc(Br)cc1 — higher, 9.4%
- COc1ccc(-c2nc(CSCC(=O)N3CCC(C(N)=O)CC3)c(C)o2)cc1OC — higher, -0.184%
- ClCc1csc(-c2ccccc2Cl)n1 — higher, -0.651%
- COc1cc(S(=O)(=O)NCc2ccc3c(c2)OCO3)c(OC)cc1C — higher, 16.1%
- COc1ccc(C(=O)NC(=C(Cl)Cl)S(=O)(=O)c2ccc(C)cc2)cc1 — higher, -1.64%
- COc1cc(NC(=O)NS(=O)(=O)c2ccc(C)cc2)cc(OC)c1 — higher, -1.04%
- CCc1ccc2oc(=O)cc(CN3CCCCC3C)c2c1.Cl (stereo not drawn) — lower, -16.7%
- COc1ccc(S(=O)(=O)N(C)CC(=O)Nc2ccccc2C(F)(F)F)cc1 — higher, 4.25%
- CC(=O)Nc1ccc(OCC(O)CNC(C)C)cc1 (stereo not drawn) — higher, 18.5%
- O=C(NNc1ccccc1)C(CCO)C(=O)NNc1ccccc1 — higher, 15.8%
- COc1ccc(OC)c(NC(=O)CSc2ccc3nnc(-c4ccccn4)n3n2)c1 — lower, -69%
- CN(C(=O)CCc1nnc(Cc2ccc(-c3ccccc3)cc2)o1)C1CCOCC1 — lower, -22.1%
- COc1ccc(CNC(=O)CCc2nnc3ccc(NCCCN4CCCC4=O)nn23)cc1 — higher, 5.89%
- O=C(NCCOc1ccccc1F)c1ccc2c(=O)n3c(nc2c1)CCC3 — lower, -20.8%
- COc1ccc(C2Nc3ccccc3C(=O)N2Cc2ccccc2)cc1 (stereo not drawn) — higher, 3.75%
